Experimental data taken from PMC10668032.
This is one part of the list. At the low end of the ranking the order means little.

The sequences below were run against SIX1-Q177R homeodomain (UniProt Q15475) (assay: universal protein binding microarray). Conditions: Universal all-10-mer PBM (8x60K, AMADID 030236), 300 nM GST-tagged protein, Alexa Fluor 488 anti-GST; buffer, salt, pH and temperature not stated; high values mean tight binding; most listed sequences are background and not binding sites; double strand, one strand shown.

Row | Sequence | binding signal [E-score]
1 | AGCTGTCA | -0.23
2 | ACATAACT | 0.11
3 | GGCTCGCA | -0.0523
4 | GCTACACC | 0.473
5 | ACCAGAAT | 0.161
6 | CGCGAGTA | 0.127
7 | ATGATCAC | -0.0125
8 | ACACTGTC | 0.336
9 | CGTCGAGC | -0.0139
10 | AGTAGCAA | -0.137
11 | TCTAAACA | -0.00135
12 | ACAGATGA | -0.167
13 | CGTATCAA | -0.0127
14 | GTCTCAAA | -0.0229
15 | CGTTTCTC | 0.0938
16 | AATGGGAT | 0.053
17 | CAGAGGAG | -0.107
18 | AGCATGGG | 0.0289
19 | CAAATATA | -0.0486
20 | ATCCTTCG | -0.0216
21 | GGTATGGA | -0.0445
22 | AAACTAAG | -0.0712
23 | GTGGCATA | 0.107
24 | CAGGAGAG | -0.0614
25 | TCGCCCCA | -0.128

Row | Sequence | binding signal [E-score]
26 | ACCTACGT | -0.0587
27 | AAGCCCAC | -0.101
28 | CGCTAGAC | -0.00679
29 | AACATATT | -0.263
30 | CCATCCAC | 0.0874
31 | AAGGCTAG | -0.119
32 | GGATTTAC | 0.0105
33 | ACCACCAC | 0.116
34 | CAATCCCC | -0.0225
35 | TGCACCAA | 0.211
36 | CCATGCAC | 0.123
37 | CAAGTATA | -0.2
38 | CTGTGTAC | 0.229
39 | ATGCTTCG | -0.165
40 | ATGACTAC | -0.0391
41 | CCAGCCGC | -0.0454
42 | GCCGTAAC | -0.115
43 | AACAGTTA | -0.114
44 | AGCAGCAG | -0.072
45 | ATCTTCAC | 0.0244
46 | AGGCTACC | 0.187
47 | ACAGTAAA | -0.0328
48 | ACTAGTAA | -0.0852
49 | CACTTTCA | 0.117
50 | ACTTCAAA | -0.2

Row | Sequence | binding signal [E-score]
51 | AGCACCCT | 0.172
52 | AACGAGGT | 0.0368
53 | TAAAGAAA | -0.122
54 | GCGTGAGC | -0.061
55 | CTCATGTA | -0.0107
56 | AGATTTTA | -0.0747
57 | ATCATCCG | 0.0213
58 | CGCCGAAC | -0.0241
59 | CGCGCGCG | 0.00566
60 | CGAAACTA | -0.111
61 | CAATTCCC | -0.1
62 | GAACACGA | 0.339
63 | GGAGGCAC | -0.0253
64 | ATTAGTGG | 0.0379
65 | CTGACTCA | -0.0178
66 | AAGACTGA | -0.0974
67 | TCAGATGA | 0.111
68 | ACCCATTC | 0.0322
69 | GTAAAAAA | -0.193
70 | CCTCCAAG | -0.0906
71 | GCGCAGAA | -0.126
72 | CCACCCTA | 0.174
73 | ACCAGGAG | 0.0753
74 | AGCCGGGC | -0.123
75 | AAGATGGT | -0.0731

Row | Sequence | binding signal [E-score]
76 | ATAGCAGA | -0.0966
77 | AGATTAAG | -0.137
78 | ATGCCCGC | -0.0116
79 | CAACTCAC | 0.104
80 | CTTGGGCC | -0.283
81 | AGCAGCCT | 0.0598
82 | GAGGAAAC | -0.169
83 | ATGGTACG | -0.0163
84 | ACGGTATC | 0.298
85 | ATGACACC | 0.492
86 | CGGAATTC | -0.093
87 | ACCGTTAT | -0.0124
88 | GGTCGTGA | 0.0821
89 | CCTGCGCG | 0.0458
90 | ACTCGGAC | 0.179
91 | AACATGAG | -0.00683
92 | CAACGGTG | 0.337
93 | AGATCGAG | -0.154
94 | AAGCGCAA | -0.152
95 | AGACTTAC | 0.0491
96 | AGAGGTGC | 0.19
97 | AGGCCCCG | -0.112
98 | TGAGCCAA | -0.312
99 | CTGGCTTA | -0.13
100 | AGTGCCCC | -0.0201

Row | Sequence | binding signal [E-score]
101 | AAAGGTTA | -0.0369
102 | GTCCAGAA | -0.0778
103 | AACGCCAT | 0.0407
104 | ACTTACCC | 0.186
105 | AGACCGCG | -0.0239
106 | ACGACACG | 0.426
107 | ATTTTTAC | -0.14
108 | CCTTCCGA | 0.0537
109 | AACCTAGT | 0.0884
110 | CTATAGGA | 0.031
111 | AATTAATT | -0.363
112 | CCGGTAAG | -0.173
113 | ACCTACGG | 0.0531
114 | GCTAACCC | 0.186
115 | CCGTCCGC | -0.1
116 | CACCCCTA | 0.283
117 | CGGAAGGC | -0.179
118 | CCATGCAG | -0.0515
119 | CAATAGGA | -0.0533
120 | CCAGCCAA | -0.216
121 | TAAGAGAA | -0.244
122 | CGTTAGAG | -0.17
123 | AATGCGTG | 0.0365
124 | GTACCCAC | 0.069
125 | TAATTAGA | -0.179

Row | Sequence | binding signal [E-score]
126 | ATCACCAC | -0.000695
127 | GGTGGGGA | 0.11
128 | ACCTTTCG | -0.00999
129 | CGGTCACA | 0.142
130 | CTCTCGTC | -0.171
131 | AAGCGGCA | -0.0991
132 | CGCATAAC | 0.0341
133 | TAGTAATA | 0.0394
134 | ATATTACC | 0.0275
135 | AGTCTTAT | -0.115
136 | CTTTCGTC | -0.173
137 | CGTCTAAA | -0.151
138 | GGAAATGA | -0.105
139 | AACTTAAG | -0.162
140 | ATTACAGC | -0.135
141 | GCGAGCCA | -0.273
142 | AGACCACA | -0.0501
143 | GTGTGTAA | 0.337
144 | AGGCGGCC | -0.286
145 | AGCGCGTC | -0.0896
146 | CCTAGATA | -0.0444
147 | CGGCGGTC | -0.208
148 | CGGAAAGC | -0.139
149 | CGTAGGGA | 0.0632
150 | CGACAGTA | -0.0537

Row | Sequence | binding signal [E-score]
151 | CTTTACTC | 0.00717
152 | CAGGCCAG | 0.0565
153 | ACCCAGGG | 0.201
154 | CTTGCGTC | -0.218
155 | ATGCACAT | -0.125
156 | CACGGCTG | 0.201
157 | CCCTTAAC | 0.152
158 | AAGGAAGT | -0.104
159 | TAATTGCA | -0.0474
160 | CTTCACCC | -0.0107
161 | CATGCTCC | -0.255
162 | TATGCCCA | 0.0138
163 | AATTAGAG | -0.162
164 | ATGGGTAC | 0.135
165 | GGGGGATA | 0.2
166 | CCACTAAG | -0.0346
167 | GCCAGGCC | -0.144
168 | CTGACGGA | -0.15
169 | CAGCAGTA | -0.105
170 | GGAGCTCC | -0.218
171 | ATTGTGGG | 0.0619
172 | CTGTTATC | -0.207
173 | CTTTGTTC | -0.245
174 | CACTGTAG | 0.116
175 | CAGCCTTA | -0.174

Row | Sequence | binding signal [E-score]
176 | ACATTCAG | -0.204
177 | GTCCTGGA | -0.0908
178 | ACATGGCA | -0.134
179 | AACAGCTA | -0.0895
180 | AAGTGGTC | -0.232
181 | CGTTAAAA | -0.291
182 | ACGGTGGC | -0.111
183 | AGAGGCGA | -0.258
184 | ATTTTGTC | -0.0516
185 | CAGGCTCG | -0.0369
186 | CAGAGTTA | 0.06
187 | AGGGACCT | -0.0258
188 | CCTGCACG | 0.138
189 | ATCGTTGG | 0.00283
190 | CAATACTA | -0.128
191 | GTAGTACA | 0.277
192 | ATCCCGGA | 0.0812
193 | TAGCAGCA | -0.097
194 | TCTCGACA | 0.0685
195 | AAGAACCA | -0.262
196 | CAGGTTGC | -0.0527
197 | AAGTGGCC | -0.25
198 | AGACACGG | 0.377
199 | CCAATATA | -0.235
200 | ATAAGCGG | -0.271

Row | Sequence | binding signal [E-score]
201 | CGATCGAC | 0.0764
202 | ATGCATCG | 0.0304
203 | CCCACTCC | 0.159
204 | AAGTGAAT | -0.253
205 | GCTGAGAA | -0.138
206 | ATTGGGGG | 0.145
207 | AATACTCA | -0.138
208 | TGCCAACA | -0.0249
209 | CAAGGCCA | -0.247
210 | ATCCGGGG | 0.232
211 | GCCCTCTA | -0.106
212 | CCATTGGA | -0.0188
213 | CTTTGTTA | -0.0715
214 | AGGTGGAG | -0.0142
215 | GATAATGC | -0.0178
216 | GACTCAGA | -0.282
217 | AGCTAGAA | -0.102
218 | AGTCCCTG | -0.194
219 | ACAACATA | -0.0915
